This is a noisy data set.
Test: amyloid nucleation score relative to library mode (yeast Sup35 reporter selection) (log enrichment difference); higher = more amyloid nucleation; sequences are the first 22 residues of the Bri2 peptide extended by up to 12 random residues
Settings: random library (experiment): 1;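 active = nucleation score significantly above 0 at FDR 0.05; inactive = not significantly above 0 or absent from output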
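Further: [psi-pin-] Saccharomyces cerevisiae expressing SupN fusions, induced by 100 µM Cu2SO4, selected 7 d at 30 °C without adenine and uracil, scored by deep sequencing of output versus input.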

| Sequence | amyloid nucleation score |
| --- | --- |
| EASNCFAIRHFENKFAVETLICVNSIGWRLRACA | inactive |
| EASNCFAIRHFENKFAVETLICVNSLVRAESAAR | inactive |
| EASNCFAIRHFENKFAVETLICVNSSGLS | inactive |
| EASNCFAIRHFENKFAVETLICVNTAYESDVWLS | inactive |
| EASNCFAIRHFENKFAVETLICVNTFGQVPLYCR | inactive |
| EASNCFAIRHFENKFAVETLICVNTNAFRCQVSV | inactive |
| EASNCFAIRHFENKFAVETLICVNVDTCKVWSHS | 5.67 |
| EASNCFAIRHFENKFAVETLICVP | inactive |
| EASNCFAIRHFENKFAVETLICVPAPLDGRASRE | inactive |
| EASNCFAIRHFENKFAVETLICVPDHCMNCYCWV | 5.65 |
| EASNCFAIRHFENKFAVETLICVPEGWTEGRGQL | inactive |
| EASNCFAIRHFENKFAVETLICVPENGRALYGRF | inactive |
| EASNCFAIRHFENKFAVETLICVPFGNALSLEGV | 0.826 |
| EASNCFAIRHFENKFAVETLICVPFRWNRSRWHH | 4.13 |
| EASNCFAIRHFENKFAVETLICVPGEKWRVVVMK | inactive |
| EASNCFAIRHFENKFAVETLICVPGFHRLATGLK | inactive |
| EASNCFAIRHFENKFAVETLICVPGKH | inactive |
| EASNCFAIRHFENKFAVETLICVPHGVRVALNRR | inactive |
| EASNCFAIRHFENKFAVETLICVPHKLGGDMSTQ | 3.21 |
| EASNCFAIRHFENKFAVETLICVPIRGMAWWWDW | 3.82 |
| EASNCFAIRHFENKFAVETLICVPIRLGRERVSG | inactive |

| Sequence | amyloid nucleation score |
| --- | --- |
| EASNCFAIRHFENKFAVETLICVPIRSSWIVTFT | inactive |
| EASNCFAIRHFENKFAVETLICVPIVATTEFAHM | inactive |
| EASNCFAIRHFENKFAVETLICVPKHQFAWGSYA | inactive |
| EASNCFAIRHFENKFAVETLICVPLLR | inactive |
| EASNCFAIRHFENKFAVETLICVPLLYRRRAETG | 3.83 |
| EASNCFAIRHFENKFAVETLICVPQGRYGCYGWQ | inactive |
| EASNCFAIRHFENKFAVETLICVPRRFALSVVGA | inactive |
| EASNCFAIRHFENKFAVETLICVPRSLMLSRSRA | inactive |
| EASNCFAIRHFENKFAVETLICVPSCKVEWDV | 0.171 |
| EASNCFAIRHFENKFAVETLICVPSCMSVELLTS | 5.37 |
| EASNCFAIRHFENKFAVETLICVPSFSSNYSRST | 3.64 |
| EASNCFAIRHFENKFAVETLICVPSTL | inactive |
| EASNCFAIRHFENKFAVETLICVPSWQGPGRHPR | -0.111 |
| EASNCFAIRHFENKFAVETLICVPVITNRTWNVA | 4.42 |
| EASNCFAIRHFENKFAVETLICVPVKA | inactive |
| EASNCFAIRHFENKFAVETLICVPWVSQYILECC | inactive |
| EASNCFAIRHFENKFAVETLICVPYIGAGGDGVA | inactive |
| EASNCFAIRHFENKFAVETLICVPYNVSLVYGLR | inactive |
| EASNCFAIRHFENKFAVETLICVQ | inactive |
| EASNCFAIRHFENKFAVETLICVQCLFEEDSDKL | 6.67 |

Same assay, conditions: random library (experiment): 2

| Sequence | amyloid nucleation score |
| --- | --- |
| EASNCFAIRHFENKFAVETLICVNSCLLDQLSVR | 3.89 |
| EASNCFAIRHFENKFAVETLICVNSFFRMFILVM | inactive |
| EASNCFAIRHFENKFAVETLICVNSMLLMYSGMS | inactive |
| EASNCFAIRHFENKFAVETLICVNSSQSAFLSRV | 3.91 |
| EASNCFAIRHFENKFAVETLICVNSYSLLRCKTV | inactive |
| EASNCFAIRHFENKFAVETLICVNTSHRNLTDKR | inactive |
| EASNCFAIRHFENKFAVETLICVNTYLFVIIFLN | inactive |
| EASNCFAIRHFENKFAVETLICVNVLIGNYGVYK | 4.41 |
| EASNCFAIRHFENKFAVETLICVNWCPMDIMD | 6.82 |
| EASNCFAIRHFENKFAVETLICVNYLRDFSVVRV | inactive |
| EASNCFAIRHFENKFAVETLICVPETYILTMLKT | -0.0583 |
| EASNCFAIRHFENKFAVETLICVPGTYNIADCG | inactive |
| EASNCFAIRHFENKFAVETLICVPKINRFYLTRE | 5.45 |
| EASNCFAIRHFENKFAVETLICVPKTLRMLLDSM | inactive |
| EASNCFAIRHFENKFAVETLICVPNGNWNIFV | 5.61 |
| EASNCFAIRHFENKFAVETLICVPNVCS | 3.99 |
| EASNCFAIRHFENKFAVETLICVPQRLIIRKMSC | inactive |
| EASNCFAIRHFENKFAVETLICVPRVDVRKWEAW | inactive |
| EASNCFAIRHFENKFAVETLICVPSSDLTSCWIL | inactive |
| EASNCFAIRHFENKFAVETLICVPT | -0.223 |
| EASNCFAIRHFENKFAVETLICVPVLSFLFVVHP | 1.26 |
| EASNCFAIRHFENKFAVETLICVPYSHVLKKQSW | inactive |
| EASNCFAIRHFENKFAVETLICVQCLGMSWLRHT | 5.46 |
| EASNCFAIRHFENKFAVETLICVQFC | 7.4 |

Same assay, conditions: random library (experiment): 3

| Sequence | amyloid nucleation score |
| --- | --- |
| EASNCFAIRHFENKFAVETLICVNYGFCALCGLA | 6.78 |
| EASNCFAIRHFENKFAVETLICVPATMPYKQMLM | inactive |
| EASNCFAIRHFENKFAVETLICVPEEEQSGRAVG | inactive |
| EASNCFAIRHFENKFAVETLICVPEELWPSFVPY | 5.21 |
| EASNCFAIRHFENKFAVETLICVPEFLASNDFVL | 0.867 |
| EASNCFAIRHFENKFAVETLICVPEYVY | inactive |
| EASNCFAIRHFENKFAVETLICVPGLGS | inactive |
| EASNCFAIRHFENKFAVETLICVPIRRCMRRAGE | inactive |
| EASNCFAIRHFENKFAVETLICVPITKLARFMWS | 8.27 |
| EASNCFAIRHFENKFAVETLICVPLPFLWMVEGT | inactive |
| EASNCFAIRHFENKFAVETLICVPLSLETVRDAG | -0.00897 |
| EASNCFAIRHFENKFAVETLICVPMNVWGKLPGL | 6.07 |
| EASNCFAIRHFENKFAVETLICVPRC | 3.93 |
| EASNCFAIRHFENKFAVETLICVPRR | inactive |
| EASNCFAIRHFENKFAVETLICVPRYGGVSVPLG | inactive |
| EASNCFAIRHFENKFAVETLICVPVGSFKMDRQG | inactive |
| EASNCFAIRHFENKFAVETLICVPWFSRFHQGMS | 8.14 |
| EASNCFAIRHFENKFAVETLICVPWRNSIVLYEG | inactive |
| EASNCFAIRHFENKFAVETLICVQARLWNIDNG | inactive |
| EASNCFAIRHFENKFAVETLICVQDHEDCEYLW | inactive |
| EASNCFAIRHFENKFAVETLICVQDPEECVRARA | inactive |
